Sequences with one replicate were seen in a single cluster, so their values are uncertain.
System: ATP
Experiment: switch fluorescence ratio, 500 uM ATP over buffer (Cy3 cluster intensity, sum of 5 cycles each) (fold (ratio)); higher = stronger signal-on switching upon ATP binding; sequences stand for … in TCGTCGGCAGCGTCAGATGTGTATAAGAGACAGTTTTTTTTTTTTTTTTTTTTTTTTT…TC
Details: aptamer strand: ATP DNA aptamer (quencher-CACCTGGGGGAGTATTGCGGAGGAAGG + anchor), 100 nM annealed; ATP concentration: 500 uM; one replicate
Procedure, shortened: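 Exposure to 500 uM ATP lasted 15 min at 22 °C before imaging, and a selection-buffer image was taken beforehand, for Cy3-labelled switching-strand clusters on a modified Illumina MiSeq flow-cell annealed to 100 nM quencher-labelled ATP aptamer. Five buffer/ATP cycles were run with NaOH stripping and re-annealing between them. The fluorescence ratio per cluster is summed target-cycle over summed buffer-cycle Cy3 intensity, averaged per switch-domain sequence. Clusters outside 100-1000 RFU were excluded.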

| Sequence | switch fluorescence ratio |
| --- | --- |
| GCAGTATTCT | 1.03 |
| TTGAACGATA | 1.28 |
| CCTTCCATGT | 1.27 |
| TATTTTGACT | 0.934 |
| TTTTATTAAC | 0.988 |
| GTCATTTTTA | 0.994 |
| CCTTGCCGAC | 1.41 |
| TAGCCCATAC | 1.55 |
| GACAAAAACT | 1.05 |
| CTTTTTCGGA | 0.974 |
| TGCTATTCTG | 0.904 |
| CCCCTTTTAA | 0.995 |
| AATAGGTGCG | 1 |
| ATCCTGGGTA | 0.998 |
| GCCTGGATCA | 1.03 |
| CTCTGCCTTT | 1.9 |
| CGTAGGTGAC | 1.07 |
| AGAGCCGAGG | 1.02 |
| CATTGCAAAG | 1.05 |
| ATAATACTTG | 0.996 |
| AGTAGATCTG | 1 |
| GTAACTGGAT | 1.1 |
| ATCGAATAT | 1 |
| ATATTGCTAT | 0.967 |
| TTTAAGAT | 0.942 |
| AAGAAGCCAC | 1.05 |

| Sequence | switch fluorescence ratio |
| --- | --- |
| TATTCAGGT | 1.02 |
| TACGGAGAAG | 0.994 |
| TTCATGACCC | 1.02 |
| TAAACTCT | 1.03 |
| AATGGGTTT | 1.02 |
| GACGCGTCGT | 1 |
| GGGAGAGCCG | 1.09 |
| CGGATTTTCT | 0.983 |
| CATCATCTTT | 1.02 |
| AGTTTGGAA | 0.998 |
| GATAACGTTG | 1.04 |
| GCAGAACCCT | 1.36 |
| GAGAGGTGAT | 1 |
| TACGTCGAGC | 1.01 |
| CTGCGGAGCC | 0.988 |
| GTCGTTGGAC | 0.992 |
| GGGACAGTTT | 0.988 |
| CCACACATCT | 1.04 |
| AAGTCAATTT | 0.967 |
| TGGGGAGGA | 1.03 |
| ATAATGACCG | 0.987 |
| TTATGTCTGT | 1.01 |
| GCGTTCCGAA | 1.08 |
| TGGGTACCGA | 0.973 |
| TGGTGGTGAG | 0.988 |
| GGATTTAAGC | 0.95 |

| Sequence | switch fluorescence ratio |
| --- | --- |
| AGAACATTTC | 1.38 |
| CTAGATGACT | 1.01 |
| CAAGTCGTAG | 0.977 |
| CCGATGGGCA | 1.08 |
| CCCGTGTTCT | 1.01 |
| TATTCGGTAT | 1.01 |
| GTTTGTTGAA | 0.95 |
| AGATCGTAAA | 1.01 |
| AAGTACCAGT | 1.02 |
| GTCGATTGGT | 0.941 |
| TGGGATCCTC | 1.07 |
| CCTAGCACAA | 3.16 |
| ACCGTGTTCA | 1.01 |
| CGGAGCCCCT | 1.03 |
| GAGTTGTAGC | 1.01 |
| AGGATGGATG | 0.995 |
| CTAAGCGCGG | 0.988 |
| CCGAGCGTGG | 1.08 |
| AGTAGTTGAC | 0.994 |
| GACCGGGGGG | 1.06 |
| TCTTTGCGGA | 1.01 |
| CACATCTGTC | 0.979 |
| TTTCGATCAT | 0.969 |
| CGTAAGTTCC | 1.13 |

— the supplement of paper PMC10126150
